Results on 61 compounds are retold here after ChEMBL document CHEMBL1201862, “PubChem BioAssay data set” (2004).

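Method: 48-hour compound exposure of cells in 96-well plates, five concentrations, linear interpolation of endpoints. GI50: concentration for 50% inhibition of growth.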 Activity calls are given as the source filed them. Cut-off read from the data, not from the text of the source: active = GI50 up to about 1.1 µM and inactive = higher.

This assay deals with NCI-H322M. The assay is described as follows: growth of human tumour cells (NCI), 48 h.
With `O=C(O)CCSc1nnc(COc2ccc(Cl)cc2)n1-c1ccccc1`, the GI50 is inactive: > 100 µM.

On to `O=C(O)CC1OCC=C2CN3CCC45C6=CC(=O)C(O)=C([N+](=O)[O-])C6=NC4C1C2CC35` (stereo unspecified), for which the GI50 is inactive: > 100 µM.

Consider `CCN(CC)c1ccc2cc(-c3nc4ccccc4n3C)c(=O)oc2c1`, for which the GI50 is active: 0.52 µM.

Regarding `Cc1[nH]c2ccccc2c1-c1cc(-c2cc(-c3c(C)[nH]c4ccccc34)nc(N)n2)nc(N)n1`, the GI50 is inactive: > 100 µM.

As for `OCCSCc1ccccc1`, the GI50 is inactive: > 100 µM.

On to `OCC1OC(n2cnc3c(SCc4ccccc4)ncnc32)C(O)C1O` (stereo unspecified), for which the GI50 was inactive: 5.35 µM.

For the compound `COc1ccc(C(=O)C#Cc2cnc(OC)nc2OC)cc1`, the GI50 was inactive: 15.2 µM.

In the case of `O=C(O)CCC(NC(=O)c1ccc(Oc2nc3ccccc3nc2-c2ccccc2)cc1)C(=O)O` (stereo unspecified), the GI50 is inactive: > 100 µM.

For the compound `COc1ccc(/C=N/N=C(\N)NO)cc1OC`, the GI50 was inactive: 40.1 µM.

On to `COc1ccc2cc(NC(=O)N/N=C\c3ccc([N+](=O)[O-])cc3)ccc2c1`, for which the GI50 was inactive: > 100 µM.

Regarding `CC(C)(C)OC(=O)NCCCCC(N)C(N)=O` (stereo unspecified), the GI50 is inactive: > 100 µM.

Regarding `Cc1ccc(-c2c(-c3ccccc3)[nH]c(C)c2C(=O)ONC(=O)c2ccccc2)cc1`, the GI50 is inactive: 11.4 µM.

Turning to `Clc1ccc(C(n2cc(Br)cn2)n2cc(Br)cn2)cc1`, the GI50 was inactive: 15.4 µM.

For `C[C@]12CC[C@H]3[C@@H](CCC4=CC(=O)CC[C@@H]43)[C@@H]1CC[C@]2(O)C(N)=O`, the GI50 is inactive: > 100 µM.

As for `COC(=O)NC(=O)NC(Cc1ccccc1)NC(=O)OCc1ccccc1` (stereo unspecified), the GI50 was inactive: > 100 µM.

Consider `C/C(=C1/N=C(c2cc([N+](=O)[O-])ccc2Cl)N(c2ccc(Br)cc2)C1=O)c1ccc(N(CCC#N)CCC#N)cc1C`, for which the GI50 is inactive: 58.2 µM.

For the compound `CCOC(=O)c1cc2cc(Cc3ccc4[nH]c(C(=O)OCC)cc4c3)ccc2[nH]1`, the GI50 is inactive: 45.9 µM.

In the case of `O=C1Nc2ccccc2/C1=N/N1C(=O)/C(=C/c2ccccc2S)N=C1c1ccccc1`, the GI50 is inactive: > 100 µM.

Take `O=S(=O)(c1ccc(-c2nnc(-c3ccc(F)cc3)o2)cc1)c1ccc(-c2nnc(-c3ccc(F)cc3)o2)cc1`: the GI50 is inactive: > 100 µM.

As to `Cc1cc(S(=O)(=O)Nc2nc3ccccc3n2-c2ccccc2)c(S)cc1Cl`, the GI50 was inactive: 67.9 µM.

Consider `O=C(NCCc1n[nH]c2c1C(=O)C=C(Nc1ccccc1)C2=O)OCc1ccccc1`, for which the GI50 is inactive: > 100 µM.

Take `NNC(=O)/C(=C/c1cccc([N+](=O)[O-])c1)NC(=O)c1ccccc1`: the GI50 was inactive: > 100 µM.

As to `Cc1c2n(c(=O)[nH]c1=O)C1OC(CO)C(O2)C1O` (stereo unspecified), the GI50 is inactive: > 100 µM.

`COc1cc(/C=C/c2cc(/C=C/c3ccc(O)c(OC)c3)oc(=O)c2)ccc1O`: the GI50 was inactive: 4.11 µM.

Consider `Nc1nc(Cl)cc(NCC(O)CO)n1` (stereo unspecified), for which the GI50 is inactive: > 100 µM.

With `CCNCCNC(=O)c1ccc(I)cc1`, the GI50 is inactive: > 100 µM.

For the compound `CN(C(=O)Nc1ccc(Cl)c(Cl)c1)C1CCCC[C@@H]1N1CCCC1` (stereo partly specified), the GI50 was inactive: 81.7 µM.

Consider `O=C1NC(N2CCOCC2)=N/C1=C\c1cccs1`, for which the GI50 is inactive: > 100 µM.

Regarding `C=C(C)CCOC(c1ccccc1)(c1ccccc1)c1ccccc1`, the GI50 was inactive: 84.1 µM.

For `Cn1c(=O)c2nc3nnc(C#N)c(N)n3c2n(C)c1=O`, the GI50 was inactive: > 100 µM.

Take `CCC1(CC)SCc2nc3ccccc3n21`: the GI50 is inactive: 71.6 µM.

Turning to `O=C(CC(=O)N1N=C(N(c2ccccc2)c2ccccc2)CC1c1ccccc1)Nc1ccc(Cl)cc1` (stereo unspecified), the GI50 is inactive: > 100 µM.

In the case of `O=C(NC1CCCCC1)N1CCNC1=S`, the GI50 was inactive: > 100 µM.

As to `CC(C)C/N=C(\N)N=C(N)N`, the GI50 is inactive: > 100 µM.

Regarding `O=C1CCC[C@]2(CCCC(=O)N2)C1`, the GI50 was inactive: > 100 µM.

Take `CC1=Nc2ccccc2C1C(Cc1ccccc1N)c1c(C)[nH]c2ccccc12` (stereo unspecified): the GI50 is inactive: 18 µM.

Consider `C=CC(=C)CCC(Br)C(C)(C)Cl` (stereo unspecified), for which the GI50 was inactive: > 100 µM.

On to `Cc1ccc(/C=C/C(=N/NC(=O)N/N=C(/C=C/c2ccc(C)cc2)C(C)(C)CN2CCCCC2)C(C)(C)CN2CCCCC2)cc1`, for which the GI50 was inactive: 1.95 µM.

As to `Cc1ccc(S(=O)(=O)C(C#N)c2nc3ccccc3nc2N2CCOCC2)cc1` (stereo unspecified), the GI50 is inactive: 20.6 µM.

With `CC(C)=CC(=O)c1c(C(=O)O)nc2ccccc2[n+]1[O-]`, the GI50 is inactive: > 100 µM.

With `CC1=CCC[C@@]2(C)C(CC[C@@H]2C(C)/C=C/C(C)C)c2ccc(cc2C(=O)O)C[C@@H](O)CC1` (stereo partly specified), the GI50 was inactive: 10.5 µM.

Consider `CC(C)CCCC(C)[C@H]1CC[C@H]2N/C(=N/c3ccccc3)CCC[C@]12C` (stereo partly specified), for which the GI50 was inactive: 6.81 µM.

For `Cc1nc(NC(C)(CO)CO)nc(N/N=C/c2ccc(Cl)cc2)c1C(=O)Nc1ccc(Cl)cc1`, the GI50 is inactive: > 100 µM.

Turning to `N=c1c2c(=S)n(-c3ccccc3)c(=S)n(-c3ccccc3)c2nc(SCCCN2CCCCC2)n1-c1ccccc1`, the GI50 was inactive: 1.88 µM.

As for `CC(=O)OCC(OC(C)=O)C(OC(C)=O)C(OC(C)=O)C(/C=N\Nc1nc2ccccc2c(=O)[nH]1)OC(C)=O` (stereo unspecified), the GI50 was inactive: > 100 µM.

As for `Cc1cccc(CC(Cc2ccc(C)cc2C(=O)O)C(=O)O)c1` (stereo unspecified), the GI50 is inactive: > 100 µM.

Turning to `CNC(=S)NNC(=O)c1c(C)nc2sccn12`, the GI50 was inactive: > 100 µM.

As to `Nc1ccc2n[se]nc2c1`, the GI50 is inactive: 97.5 µM.

In the case of `COc1ccc2c(c1)C1=NCCN(C)c3ccc([N+](=O)[O-])c(c31)N2`, the GI50 was inactive: 1.26 µM.

In the case of `Cc1nn(C)c(=O)c2nn(-c3ccccc3)c(C)c12`, the GI50 was inactive: > 100 µM.

Turning to `CC(C)[Si](OC1=C(C(=O)Nc2ccccc2Cl)CCCCC1)(C(C)C)C(C)C`, the GI50 was inactive: > 100 µM.

Turning to `CSC1(C(=O)O)C2CCC3C2CCC31` (stereo unspecified), the GI50 is inactive: > 100 µM.

`Oc1nnnc2c1sc1ncccc12`: the GI50 was inactive: > 100 µM.

For the compound `CCOC(=O)N(C)CCC1CC=CC(=O)C1c1cccc(OC)c1OC` (stereo unspecified), the GI50 is inactive: 29.4 µM.

For the compound `Clc1ccc(Cc2nc3ccccc3s2)c(Cl)c1`, the GI50 was inactive: 18.8 µM.

For the compound `NC1=C(Cl)C(=O)c2c(O)ccc(O)c2C1=O`, the GI50 is inactive: 1.74 µM.

With `Cc1ccc(NC2=CC(=O)C(NO)c3ccccc32)cc1` (stereo unspecified), the GI50 is inactive: 11.2 µM.

Consider `N#C[BH2-][n+]1ccc(C(=O)NNCc2ccc(F)cc2)cc1`, for which the GI50 was inactive: > 100 µM.

As to `CCOC(=O)C1C=C2O[C@@H]3OC4(CCCCC4)O[C@@H]3C2C2C(=O)CCC(=O)[C@@]12C(=O)OC` (stereo partly specified), the GI50 was inactive: > 100 µM.

Consider `COc1ccc(C(=O)c2cc(OC)c(OC)c(OC)c2)cc1`, for which the GI50 is active: 0.209 µM.

As to `O=C(/C=C/c1ccccc1)c1cc(CN2CCOCC2)c(O)c(CN2CCOCC2)c1`, the GI50 is inactive: 20.3 µM.
